Holding throughout (test): Primary Screen for Target Class Profiling of Small Molecule Inhibitors of Methyltransferases
The target of assay [1] is Glycine N-methyltransferase (Homo sapiens) (UniProt Q14749). Conditions: purified enzyme, MTase-Glo SAH luminescence; measured here: GNMT inhibition; at 40 µM; stronger effect = lower value. An outline of the steps: (§1)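 Each enzyme was assayed with SAM and its substrate. SAH formation detected by MTase-Glo luminescence; single-point 40 uM screen[…].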
The target in assay [2] is Guanidinoacetate N-methyltransferase (Homo sapiens) (UniProt Q14353). Conditions: purified enzyme, MTase-Glo SAH luminescence; measured here: GAMT inhibition; at 40 µM; stronger effect = lower value. The method in brief:
as §1

The target in assay [3] is Histamine N-methyltransferase (Homo sapiens) (UniProt P50135). Conditions: purified enzyme, MTase-Glo SAH luminescence; measured here: HNMT inhibition; at 40 µM; stronger effect = lower value. An outline of the steps:
as §1

For assay [4], the target named is Nicotinamide N-methyltransferase (Homo sapiens) (UniProt P40261). Conditions: purified enzyme, MTase-Glo SAH luminescence; measured here: NNMT inhibition; at 40 µM; stronger effect = lower value. The method in brief: as §1
Assay [5] has as its target Phenylethanolamine N-methyltransferase (Homo sapiens) (UniProt P11086). Conditions: purified enzyme, MTase-Glo SAH luminescence; measured here: PNMT inhibition; at 40 µM; stronger effect = lower value. The method in brief: as §1

The list shows a part of the results. Shown are side measurements of this screen, not its main read-out; they come without a call.
% is scaled to controls: 0 for no effect and ±100 for the full control effect.

As to `CN(C)C[C@@H]1CN(Cc2ccccn2)C[C@H]1NC(=O)c1n[nH]c2ccccc12`, the activity change, negative = inhibition in assay [1] is -7.66%; in assay [2], -1.36%; in assay [3], -3.43%; in assay [4], -2.35%; in assay [5] it was -3.95%.

Consider `Cc1ccc(C)c(N2CCN(S(=O)(=O)c3ccc4[nH]c5c(c4c3)CCCC5)CC2)c1`, for which the activity change, negative = inhibition in assay [1] is 3.44%; in assay [2] it was 0%; in assay [3], 2.34%; in assay [4] it was 2.78%; in assay [5], 2.64%.

In the case of `CCCN1C(=O)c2cc(-c3ccc(OC)cc3)nn2CC1(C)C(=O)NCc1ccccc1OC` (stereo not given), the activity change, negative = inhibition in assay [1] is 2.65%; in assay [2] it was 2.46%; in assay [3], 5.97%; in assay [4] it was 2.77%; in assay [5], -0.594%.

Regarding `COc1ccc(-c2n[nH]n3c2nc(=O)c2ccc(C(=O)NC(C)c4ccc(F)cc4)cc23)cc1` (stereo not given), the activity change, negative = inhibition in assay [1] is -30.1%; in assay [2], 2.12%; in assay [3], 0.273%; in assay [4] it was -7.05%; in assay [5], -4.76%.

Turning to `COc1ccc(CN2C(=O)c3cc(-c4ccccc4)nn3CC2(C)C(=O)NCc2ccccc2)cc1` (stereo not given), the activity change, negative = inhibition in assay [1] is 1.07%; in assay [2], 4.72%; in assay [3], 2.15%; in assay [4] it was -5.01%; in assay [5] it was 1.09%.

With `COc1ccc2cc3n(c2c1)CC(C)(C(=O)NCC1CCCO1)N(CCc1ccccc1)C3=O` (stereo not given), the activity change, negative = inhibition in assay [1] amounted to 4.23%; in assay [2] it was 0.183%; in assay [3], 4.68%; in assay [4], 8.91%; in assay [5], 0.196%.

Regarding `CC(=O)O[C@@H]1CC[C@@]2(C)[C@H](CC[C@@H]3[C@@H]2C[C@H](OC(C)=O)[C@]2(C)[C@@H](C(C)=O)CC[C@@H]32)C1`, the activity change, negative = inhibition in assay [1] is -2.62%; in assay [2], 7.02%; in assay [3], -0.094%; in assay [4] it was -20.7%; in assay [5], -11%.

Consider `COC(=O)c1ncn2c1C(=O)N(Cc1cccc(OC)c1OC)C(C)(C(=O)NC1CCCCC1)C2` (stereo not given), for which the activity change, negative = inhibition in assay [1] came to 3.68%; in assay [2] it was 6.06%; in assay [3], 5.63%; in assay [4], 6%; in assay [5] it was 1.88%.

In the case of `COc1cccc(CN2C(=O)c3cc4ccc(OC)cc4n3CC2(C)C(=O)NC2CCCC2)c1` (stereo not given), the activity change, negative = inhibition was 2.02% in assay [1]; 2.24% in assay [2]; 5.06% in assay [3]; -0.921% in assay [4]; 0.193% in assay [5].

With `CCCn1c(=O)c2ccc(C(=O)NCC(C)C)cc2n2c(=O)n(Cc3cccc(C)c3)nc12`, the activity change, negative = inhibition in assay [1] was 4.02%; in assay [2], 3.41%; in assay [3], 11.8%; in assay [4] it was -3.48%; in assay [5], 3.85%.

For `CCOc1ccccc1C(=O)NC1CCN(c2cc(C)cc(C)c2)C1=O` (stereo not given), the activity change, negative = inhibition in assay [1] was -4.21%; in assay [2] it was 1.5%; in assay [3], 0.575%; in assay [4] it was -1.78%; in assay [5], -1.03%.

`CCOc1ccc(CCN2C(=O)Cn3cccc3C2C(=O)NC2CCC(C)CC2)cc1` (stereo not given): the activity change, negative = inhibition in assay [1] was -5.78%; in assay [2], 2.41%; in assay [3], -2.25%; in assay [4], -1.1%; in assay [5], -5.26%.

`COCCCNC(=O)C1(C)Cn2nc(-c3ccccc3)cc2C(=O)N1Cc1cc(OC)ccc1OC` (stereo not given): the activity change, negative = inhibition in assay [1] was -0.332%; in assay [2], 1.66%; in assay [3] it was 5.14%; in assay [4], 9.3%; in assay [5], 1.95%.

Consider `O=C(CCn1ccc2cc(S(=O)(=O)N3CCCCC3)ccc21)NCc1cccs1`, for which the activity change, negative = inhibition in assay [1] worked out at 3.38%; in assay [2] it was 0.162%; in assay [3], 3.92%; in assay [4], 1.69%; in assay [5], 1.4%.

In the case of `CCN(CC)Cc1cnc2c(C(=O)N3CCCN4CCC[C@H]4C3)cnn2c1`, the activity change, negative = inhibition is -9.81% in assay [1]; -13.9% in assay [2]; -16.7% in assay [3]; -19.1% in assay [4]; -14.7% in assay [5].

Turning to `CCCN1C(=O)c2ccc(-c3ccco3)n2CC1(C)C(=O)NC1CCCCCCC1` (stereo not given), the activity change, negative = inhibition in assay [1] was -0.569%; in assay [2], 0%; in assay [3], 1.64%; in assay [4], -9.09%; in assay [5], -3.13%.

With `CCC(C)NC(=O)c1ccc2c(=O)n(C)c3nn(CC(=O)Nc4ccccc4C)c(=O)n3c2c1` (stereo not given), the activity change, negative = inhibition in assay [1] was found to be 4.97%; in assay [2] it was 0%; in assay [3], 5.76%; in assay [4], 2.9%; in assay [5], 2.49%.

As for `O=C(Nc1ccncc1)c1cc([N+](=O)[O-])ccc1Cl`, the activity change, negative = inhibition was -0.48% in assay [1]; 7.09% in assay [2]; 4.04% in assay [3]; -2.04% in assay [4]; 7.87% in assay [5].

As for `CCOC(=O)C1CCN(C(=O)C2COC3(CCCCC3)N2C(=O)c2cc(F)cc(F)c2)CC1` (stereo not given), the activity change, negative = inhibition was -2.11% in assay [1]; -0.037% in assay [2]; -0.2% in assay [3]; -9.76% in assay [4]; 9.29% in assay [5].

Turning to `O=C(CCCN1CCN(c2ccccn2)CC1)c1ccc(F)cc1`, the activity change, negative = inhibition in assay [1] was 0.31%; in assay [2], 8.69%; in assay [3], 10.1%; in assay [4], -8.45%; in assay [5] it was 2.71%.

In the case of `CC(=O)Nc1ccc(C(=O)NCc2nn(Cc3ccccc3)c3ccccc23)cc1`, the activity change, negative = inhibition is 7.08% in assay [1]; 2.84% in assay [2]; 8.37% in assay [3]; -6.55% in assay [4]; 7.23% in assay [5].

`Cc1c(C(C)NC(=O)c2ccc(=O)[nH]c2)cnn1-c1cccc2ccccc12` (stereo not given): the activity change, negative = inhibition is -4.46% in assay [1]; -1.66% in assay [2]; 2.13% in assay [3]; -7.54% in assay [4]; -3.91% in assay [5].

Consider `Cc1cc(NC(=O)Nc2ccc3c(ccn3C)c2)sn1`, for which the activity change, negative = inhibition in assay [1] was -15.4%; in assay [2], 11.8%; in assay [3], -17.3%; in assay [4] it was -6.36%; in assay [5], 0.691%.

For the molecule `COCCn1c(COc2c(F)ccc(Cl)c2F)nnc1C1CC(N)C1` (stereo not given), the activity change, negative = inhibition in assay [1] was -3.35%; in assay [2], -1.05%; in assay [3], -8.42%; in assay [4] it was -6.25%; in assay [5], -0.29%.

For the molecule `CC1CC(C)CN(S(=O)(=O)c2ccc3c(c2)oc(=O)n3CC(=O)Nc2ccc(Cl)cc2)C1` (stereo not given), the activity change, negative = inhibition in assay [1] was 14.1%; in assay [2], 0.108%; in assay [3] it was 11.2%; in assay [4] it was 2.69%; in assay [5] it was -34.1%.

Turning to `CCc1nc(NCc2cn[nH]c2-c2ccc(Cl)cc2)c2cnn(C)c2n1`, the activity change, negative = inhibition is -12.4% in assay [1]; -4.15% in assay [2]; -13.8% in assay [3]; -14.2% in assay [4]; 4.39% in assay [5].

On to `CCCn1nc(CNC(=O)Cc2cccc(F)c2)c2ccccc21`, for which the activity change, negative = inhibition in assay [1] was 13.8%; in assay [2], 4.34%; in assay [3], 12.6%; in assay [4], 3.23%; in assay [5], 9.22%.

With `CC1(C(=O)NCc2ccccc2)Cn2cnc(C(=O)NCCc3ccc(Cl)cc3)c2C(=O)N1C1CC1` (stereo not given), the activity change, negative = inhibition is -3.36% in assay [1]; 0% in assay [2]; 1.53% in assay [3]; 0.049% in assay [4]; 2.08% in assay [5].

For the molecule `C=CC(C)(C)c1[nH]c2ccccc2c1C1=C(O)C(=O)C(c2c[nH]c3c(CC=C(C)C)cccc23)=C(O)C1=O`, the activity change, negative = inhibition was -9.54% in assay [2], -15.5% in assay [4] and -4.62% in assay [5].

In the case of `CCn1c(CO)nnc1C1CC(NC(=O)c2sccc2N)C1` (stereo not given), the activity change, negative = inhibition in assay [1] is -6.18%; in assay [2] it was -8.87%; in assay [3], -3.1%; in assay [4] it was -15.8%; in assay [5] it was -2.16%.

In the case of `C/C1=C\[C@@H](C)C[C@@H](C)[C@@H](Cc2cnco2)OC(=O)/C(C)=C/[C@@H](C)C[C@@H](C)[C@@H](Cc2cnco2)OC1=O`, the activity change, negative = inhibition in assay [1] is -1.42%; in assay [2], -0.558%; in assay [3], 10.2%; in assay [4], -13.1%; in assay [5] it was -9.24%.

For the molecule `CNCCCC1(c2ccccc2)OC(C)(C)c2ccccc21` (stereo not given), the activity change, negative = inhibition in assay [1] is 4.18%; in assay [2] it was 11.8%; in assay [3], -1.43%; in assay [4] it was -8.26%; in assay [5], 6.86%.

For `CCCn1c(=O)c2ccc(C(=O)NC(C)CC)cc2n2c(=O)n(CC(=O)c3ccc(C)cc3)nc12` (stereo not given), the activity change, negative = inhibition in assay [1] is 1.83%; in assay [2] it was 1.17%; in assay [3] it was 4.16%; in assay [4] it was -0.973%; in assay [5], 4.25%.

In the case of `CCC1=CC2CN(C1)Cc1c([nH]c3ccccc13)[C@@](C(=O)OC)(c1cc3c(cc1OC)N(C)[C@H]1[C@@](O)(C(=O)OC)[C@H](OC(C)=O)[C@]4(CC)C=CCN5CC[C@]31[C@@H]54)C2` (stereo not given in full), the figures for the activity change, negative = inhibition in assay [1] and in assay [3] were -5.4% and 1.27%, respectively.

On to `COCCNC(=O)C1(C)Cn2nc(-c3ccccc3)cc2C(=O)N1c1ccc(F)cc1C` (stereo not given), for which the activity change, negative = inhibition in assay [1] is -7.31%; in assay [2], -1.53%; in assay [3], -2.63%; in assay [4] it was 1.37%; in assay [5], -3.01%.

As for `O=C(/C=C/c1ccc(O)c(O)c1)O[C@H]1[C@@H]2C=CO[C@@H](O[C@@H]3O[C@H](CO)[C@@H](O)[C@H](O)[C@H]3O)[C@@H]2[C@@]2(CO)O[C@@H]12`, the activity change, negative = inhibition in assay [1] was -0.48%; in assay [2], 0.283%; in assay [3], 6.92%; in assay [4], -10.5%; in assay [5] it was -2.43%.

Consider `CC(C)CC(=O)OC[C@@]1(O)C[C@@]23CC[C@H]4[C@@](C)(CCC[C@@]4(C)C(=O)O)[C@@H]2CC[C@@H]1C3`, for which the activity change, negative = inhibition is 0% in assay [1]; -2.14% in assay [2]; 3.56% in assay [3]; -17.3% in assay [4]; 1.38% in assay [5].
